According to PMC4336329 (PLoS ONE, 2015):
Among all 310,000 compounds or so, about 14,000 (4.5%) showed an effect of 50% or more. The effect is printed as a negative number. Some of the results follow.

These compounds were tested against human ether-à-go-go-related gene (hERG) potassium channel (human, UniProt Q12809) (assay: primary screen, population patch clamp on CHO cells stably expressing hERG).
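Further: peak tail current of the secondary pulse compared with the same well before compound.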

Chain of human ether-à-go-go-related gene (hERG) potassium channel (Q12809 whole entry, looked up): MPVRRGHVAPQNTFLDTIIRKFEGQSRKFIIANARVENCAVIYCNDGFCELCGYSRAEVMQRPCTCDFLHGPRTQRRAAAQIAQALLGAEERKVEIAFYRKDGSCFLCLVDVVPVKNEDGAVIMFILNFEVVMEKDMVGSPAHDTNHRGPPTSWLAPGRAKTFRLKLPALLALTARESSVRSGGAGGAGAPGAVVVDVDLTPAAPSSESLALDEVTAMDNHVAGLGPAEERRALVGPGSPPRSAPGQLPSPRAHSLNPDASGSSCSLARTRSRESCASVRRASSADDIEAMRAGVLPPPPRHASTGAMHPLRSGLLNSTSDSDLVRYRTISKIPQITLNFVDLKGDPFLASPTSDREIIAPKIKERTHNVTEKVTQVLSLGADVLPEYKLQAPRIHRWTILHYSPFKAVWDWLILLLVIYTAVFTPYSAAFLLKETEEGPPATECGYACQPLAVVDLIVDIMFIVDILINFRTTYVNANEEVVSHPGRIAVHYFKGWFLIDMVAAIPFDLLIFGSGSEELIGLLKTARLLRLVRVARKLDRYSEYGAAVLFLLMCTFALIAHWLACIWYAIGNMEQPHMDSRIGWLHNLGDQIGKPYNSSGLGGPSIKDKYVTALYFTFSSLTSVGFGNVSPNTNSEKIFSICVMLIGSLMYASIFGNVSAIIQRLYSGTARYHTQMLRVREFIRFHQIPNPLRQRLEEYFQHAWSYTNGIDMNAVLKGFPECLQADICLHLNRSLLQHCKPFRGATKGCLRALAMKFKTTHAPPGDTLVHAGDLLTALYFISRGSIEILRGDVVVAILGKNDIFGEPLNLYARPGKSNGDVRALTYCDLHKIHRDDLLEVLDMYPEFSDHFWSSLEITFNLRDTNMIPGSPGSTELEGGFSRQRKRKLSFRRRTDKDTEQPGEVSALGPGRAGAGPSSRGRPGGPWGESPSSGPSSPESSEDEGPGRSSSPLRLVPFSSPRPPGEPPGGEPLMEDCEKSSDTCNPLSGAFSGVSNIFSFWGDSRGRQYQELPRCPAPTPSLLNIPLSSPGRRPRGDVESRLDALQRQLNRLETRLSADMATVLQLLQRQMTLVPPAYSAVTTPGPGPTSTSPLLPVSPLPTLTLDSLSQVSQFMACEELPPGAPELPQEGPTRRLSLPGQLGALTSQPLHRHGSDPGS

| SMILES | hERG current change (%, negative = inhibition) at 10uM |
| --- | --- |
| COc1cccc(C(=O)C2CN(C)CC2c2ccc(Cl)cc2)c1 (centres unmarked) | -66.4% |
| O=C(Nc1ccc(Br)cc1)C1CCCN(C2=NS(=O)(=O)c3ccccc32)C1 (centres unmarked) | -29.1% |
| COc1cnc(-c2ccccn2)nc1Oc1ccc(F)cc1F | 4.34% |
| CC(CCc1ccccc1)NC(=O)Cn1cccc1C(=O)c1ccccc1 (centres unmarked) | 9.36% |
| CCCc1cc(C(=O)OCC(=O)N2CCN(c3ccc(OC)cc3)CC2)sc1C | -41.8% |
| Cc1c(C)c2ccc(OCC(=O)NCCCN3CCCC3=O)cc2oc1=O | 9.72% |
| C=CC[n+]1c(-c2ccc(OC)cc2)csc1NNC(=O)Nc1ccccc1.[Br-] | 7.96% |
| Cc1cc(NC(=O)C(C)SCC(=O)OCc2c(Cl)cccc2Cl)no1 (centres unmarked) | -5.9% |
| O=C1CC(=O)CC(c2ccco2)C1 | 8.17% |
| CC1CCCN(C(=O)COc2ccc3c(c2)OCO3)C1 (centres unmarked) | 5.07% |
| CC(C)C[C@H](NC(=O)OC(C)(C)C)c1nnc(SCc2ccccc2)o1 | -27.7% |
| O=C1CC(C(=O)Nc2ccccc2)C2(CCCCC2)O1 (centres unmarked) | 13.6% |
| N#Cc1c(NC(=O)CSc2nnc(-c3ccccc3)o2)sc2c1CCCC2 | -0.683% |
| Cc1cccc(C)c1NC(=O)COC(=O)c1cccnc1 | 4.43% |
| O=C(NCCN1CCOCC1)c1c[nH]c2ccc(S(=O)(=O)N3CCOCC3)cc2c1=O | 8.53% |
| C#CCOCCOCCOCCNc1nc(N2CCN(C(=O)CCCCCCCCCCNC(=O)Cn3cc(C[C@@H](C)O)nn3)CC2)nc(N2CCN(C(=O)CCCCCCCCCCNC(=O)[C@H](CCCCN)n3cc(C[C@@H](C)CC)nn3)CC2)n1 | 1.18% |
| Cc1onc(-c2ccccc2Cl)c1C(=O)NC(=S)NCc1cccnc1 | -29.5% |
| CCn1c(=O)c(CCC(=O)N2CCN(c3ccccn3)CC2)c(C)c2c(C)nn(-c3cccc(C)c3)c21 | -2.32% |
| CC(C)(C)C1CCc2c(sc(NC(=O)C3CCCO3)c2C(N)=O)C1 (centres unmarked) | -20.7% |
| CCC1CN(C(=O)NCc2ccc(F)cc2)c2cc(C)ccc2O1 (centres unmarked) | -18.1% |
| Cn1ncnc1SCc1cn2cccnc2n1 | 14.2% |
| COc1cccc(CNS(=O)(=O)c2cc3c(cc2C)NC(=O)CO3)c1 | -25.4% |
| O=C(OCC(=O)c1c[nH]c2ccccc12)c1cccc(O)c1 | -5.24% |
